Consider 89 compounds from paper PMC4336329 (PLoS ONE, 2015).

In all, about 310,000 compounds went through this assay and about 2,200 (0.71%) showed an effect of 50% or more. Effects have a minus sign here. The list shows a part of the results.

Chain of human ether-à-go-go-related gene (hERG) potassium channel (Q12809 whole entry, looked up): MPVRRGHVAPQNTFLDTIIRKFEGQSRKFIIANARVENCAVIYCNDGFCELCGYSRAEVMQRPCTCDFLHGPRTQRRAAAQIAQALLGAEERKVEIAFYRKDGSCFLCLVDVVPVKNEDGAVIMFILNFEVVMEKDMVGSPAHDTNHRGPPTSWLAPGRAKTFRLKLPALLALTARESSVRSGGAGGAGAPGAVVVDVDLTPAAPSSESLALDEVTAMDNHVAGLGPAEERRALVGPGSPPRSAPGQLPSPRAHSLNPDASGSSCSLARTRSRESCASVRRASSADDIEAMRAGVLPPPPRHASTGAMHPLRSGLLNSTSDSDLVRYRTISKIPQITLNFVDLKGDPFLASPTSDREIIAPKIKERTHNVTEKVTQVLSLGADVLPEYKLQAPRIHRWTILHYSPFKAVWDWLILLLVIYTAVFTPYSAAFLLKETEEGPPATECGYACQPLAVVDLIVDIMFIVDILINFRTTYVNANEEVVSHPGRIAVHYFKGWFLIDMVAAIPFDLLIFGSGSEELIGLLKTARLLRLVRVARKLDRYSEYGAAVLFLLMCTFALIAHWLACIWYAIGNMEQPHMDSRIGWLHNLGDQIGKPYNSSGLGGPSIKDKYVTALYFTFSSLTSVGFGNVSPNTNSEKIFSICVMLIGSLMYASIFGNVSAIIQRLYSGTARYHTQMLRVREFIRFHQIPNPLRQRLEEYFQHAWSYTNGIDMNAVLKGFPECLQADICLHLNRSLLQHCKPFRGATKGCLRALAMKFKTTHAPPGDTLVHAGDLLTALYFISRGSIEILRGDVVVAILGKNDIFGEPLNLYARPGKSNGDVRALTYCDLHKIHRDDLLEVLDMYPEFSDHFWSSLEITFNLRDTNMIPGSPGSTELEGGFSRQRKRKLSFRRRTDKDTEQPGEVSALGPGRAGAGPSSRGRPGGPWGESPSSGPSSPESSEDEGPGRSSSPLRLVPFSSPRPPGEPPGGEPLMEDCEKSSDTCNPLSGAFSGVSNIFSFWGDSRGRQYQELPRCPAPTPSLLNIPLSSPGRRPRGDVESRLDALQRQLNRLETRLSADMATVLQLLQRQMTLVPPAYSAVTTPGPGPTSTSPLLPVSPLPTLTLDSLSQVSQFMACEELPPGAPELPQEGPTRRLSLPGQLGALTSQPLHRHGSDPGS

This test has as its target human ether-à-go-go-related gene (hERG) potassium channel (human, UniProt Q12809). Put plainly: primary screen, population patch clamp on CHO cells stably expressing hERG.
Regarding `Cc1ccc(OCc2nnc(SCC(=O)NCc3ccco3)n2C)cc1`, the “hERG current change (%, negative = inhibition) at 1uM” value was -4.78%.
As to `Nc1cccn2c(-c3ccc(Cl)cc3)cnc12`, the “hERG current change (%, negative = inhibition) at 1uM” value was 12.3%.
In the case of `CC(=O)N1CCN(c2ccc([N+](=O)[O-])c(NCC3CCCO3)c2)CC1` (centres unmarked) it was -1.4%; in that of `Cc1ccc(-c2nnn(CC(=O)N(CC(=O)NC3CCCCC3)c3ccc(F)c(Cl)c3)n2)o1`, 14.2%; in that of `CCOc1ccc(C(=O)N2CCN(c3ccccc3)CC2)cc1`, -0.559%.
In the case of `C=CCn1c(COc2ccccc2F)nnc1SCC(=O)NC(=O)NCc1ccco1` it was 2.24%.
In the case of `CC1(C)CC2CC(C)(CN2C(=O)Cc2ccccc2)C1` (centres unmarked) it was 5.8%.
In the case of `COc1ccc(C(=O)CSc2nnc(-c3ccccc3)o2)cc1`, the “hERG current change (%, negative = inhibition) at 1uM” value is 9.48%.
In the case of `COc1ccc(-c2cc(C(F)(F)F)c(C#N)c(SCC(=O)Nc3nc(C)co3)n2)cc1`, the “hERG current change (%, negative = inhibition) at 1uM” value worked out at 14%.
In the case of `COc1ccc(OC)c(NC(=O)CCN2CCCCC2)c1` it was 5.68%; in that of `O=[N+]([O-])c1ccccc1S(=O)(=O)N1CCN(C2CCCC2)CC1`, 9.1%.
With `Oc1ccc(C2Nc3cccc4cccc(c34)N2)cc1` the figure was 12.4%.
In the case of `C=C(C)CN1C(=O)C2(OCCO2)c2ccccc21` it was 14.9%.
As to `COc1cc(NC2CCCCC2O)c2nc(-c3ccc(Cl)cc3)ccc2c1` (centres unmarked), the “hERG current change (%, negative = inhibition) at 1uM” value is reported as 3.63%.
Turning to `Cc1c(CN(C)C(=O)c2nn(C)cc2[N+](=O)[O-])cnn1C`, the “hERG current change (%, negative = inhibition) at 1uM” value turned out to be 10.8%.
In the case of `CC1(C)CC(=O)C(C=NCCN2CCN(C(=S)Nc3cccc(Cl)c3)CC2)=C(O)C1` it was -27.6%.
In the case of `CC(C)(CO)NCC#Cc1ccccc1.Cl`, the “hERG current change (%, negative = inhibition) at 1uM” value amounted to 7.46%.
Regarding `COc1cccc(-c2nc(CCl)cs2)c1.Cl`, the “hERG current change (%, negative = inhibition) at 1uM” value amounted to 36.5%.
In the case of `CCOC(=O)C1CCN(S(=O)(=O)Cc2ccccc2)CC1` it was 8.66%; in that of `CCCC(C)NC(=O)COC(=O)c1ccc2c(c1)C(=O)N(Cc1ccco1)C2=O` (centres unmarked), 14.2%.
In the case of `Cc1nc2c(-c3ccc(Cl)cc3)cnn2c(N)c1-c1ccc(F)cc1` it was 16.1%.
In the case of `Cc1nnc2sc(-c3ccc(NC(=O)c4ccc(-c5ccc(Cl)cc5Cl)o4)cc3)nn12` it was 13.1%.
On to `O=C(O)CC(O)C(=O)O` (centres unmarked), for which the “hERG current change (%, negative = inhibition) at 1uM” value was 17.6%.
In the case of `O=S(=O)(c1ccccc1)N1N=C(c2ccc(Br)cc2)CC1c1ccco1` (centres unmarked) it was 9.25%; in that of `CCOC(=O)C1CCCN(c2c(Nc3ccc(C)c(C)c3)c(=O)c2=O)C1` (centres unmarked), -6.7%; in that of `CN(CC(=O)Nc1cccc(F)c1)C(=O)C1CCN(S(=O)(=O)c2ccc3c(c2)OCCO3)CC1`, -3.13%.
With `CCCCNc1c(N)n(CCC)c(=O)[nH]c1=O` the figure was 18.3%; with `CCOc1nc(NCCc2ccc(OC)c(OC)c2)nc(N2CCN(c3ccc(OC)cc3)CC2)n1`, 3.13%.
In the case of `COc1cc(OC)cc(-n2nnnc2SCC(=O)N2CCCc3ccccc32)c1` it was 1.61%; in that of `Cc1ccc2nc(NC(=O)C3CCN(S(=O)(=O)c4ccc5c(c4)oc(=O)n5C)CC3)sc2c1`, 7.18%; in that of `COC(=O)C1CCN(C(=O)COC(=O)c2cc(-c3ccccc3)nc3ccc(OC)cc23)CC1`, 4.18%.
For `CCOC(=O)N1CCN(c2c(NCc3ccc(Cl)cc3)c(=O)c2=O)CC1`, the “hERG current change (%, negative = inhibition) at 1uM” value is on record as 12.7%.
In the case of `COc1ccc(CCNC(=O)CSc2nc3cc(Cl)ccc3o2)cc1OC` it was 3.39%; in that of `CN1CCN(c2nc(-c3ccccc3)ncc2S(=O)(=O)c2ccccc2)CC1`, -1.14%.
With `O=C(CSCc1ccccc1Br)NC1CC1` the figure was 11.8%; with `S=C(Nc1ccccc1)Nc1ccc2cn[nH]c2c1`, 4.09%.
With `CC(=O)N1N=C(c2ccc(C)cc2)CC1c1ccco1` (centres unmarked) the figure was 15%; with `COc1ccc(-c2csc(NC(=O)CN3C(=O)CCC3=O)n2)cc1OC`, 18.6%.
As to `CCN(CC)c1nc2ccccc2c(N)c1-c1ccccc1.O=C(O)C(=O)O`, the “hERG current change (%, negative = inhibition) at 1uM” value is on record as -53.9%.
In the case of `COc1ccc(CCNC(=O)CN(c2cc([N+](=O)[O-])ccc2OC)S(C)(=O)=O)cc1OC` it was 8.56%; in that of `Cc1ccc(Cl)cc1N1CCN(C(=O)C2CCC(=O)N(C3CCCCCC3)C2)CC1` (centres unmarked), 6.13%; in that of `Nc1nc2ccccc2n1CCOc1ccc(F)cc1`, -18.1%.
With `CC(C)COC(=O)Nc1nnc(Cc2ccccc2)s1` the figure was 9.49%; with `Cc1ccc(C(=O)O)cc1NC(=S)NC(=O)c1ccc([N+](=O)[O-])cc1Cl`, 17.1%; with `COc1ccc(CNC(=O)C(=O)c2cn(CC(=O)N3CCOCC3)c3ccccc23)cc1`, 13.7%.
In the case of `CCOC(=O)C1CCCN(C(=O)c2cc3c(OC)c(OC)c(OC)cc3[nH]2)C1` (centres unmarked) it was 9.42%; in that of `Cc1ccccc1CS(=O)(=O)c1cn(CC(=O)N2CCOCC2)c2ccccc12`, 5.73%; in that of `CC(C)OCCCNC(=O)c1ccc(CN2CCc3ccccc3C2)cc1`, 8.03%.
Take `COc1ccccc1N1CCN(C(=O)c2ccc(-c3ccccc3)cc2)CC1`: the “hERG current change (%, negative = inhibition) at 1uM” value is listed as 4.44%.
In the case of `Cc1cc(C)cc(C(=O)NC(CC(N)=O)c2ccc(NC3CCCC3)c([N+](=O)[O-])c2)c1` (centres unmarked) it was 16%.
With `CCc1c(C)nc(Nc2nc(C)c3ccc(OC)cc3n2)[nH]c1=O` the figure was 15.4%; with `COC(=O)Cc1cc(=O)n2[nH]c(SC)nc2n1`, 12.7%.
In the case of `CCc1ccc(S(=O)(=O)N2CCN(C(=O)c3cccnc3)CC2)cc1` it was 9.81%; in that of `Cc1cc(C)cc(N(CC(=O)NCc2cccnc2)S(C)(=O)=O)c1`, 8.28%; in that of `O=C(O)c1ccccc1Cc1nc2cc(Cl)ccc2c(=O)[nH]1`, 11.3%.
As to `CCOC(=O)C1CCN(C(=O)COC(=O)c2ccc(Br)o2)CC1`, the “hERG current change (%, negative = inhibition) at 1uM” value is recorded as 5.96%.
In the case of `Oc1cccc2ccc(/C=C/c3c(F)cccc3Cl)nc12` it was 19.7%; in that of `CCn1c(=O)c2cc(C(=O)NCC(OC)OC)sc2c2ccccc21`, 10.5%.
In the case of `O=C(CSc1nc2ccc([N+](=O)[O-])cc2[nH]1)NCCc1ccccc1` it was 10.5%; in that of `Cc1ccc(C(=O)NCc2nnc3c(C(F)(F)F)cc(Cl)cn23)o1`, 11.9%; in that of `CC(C)(C)OC(=O)NCCCCCNC(=O)c1[nH]cnc1C(=O)N[C@@H](Cc1ccccc1)C(=O)OCc1ccccc1`, 8.8%.
`COc1ccc(OC)c(NC(=O)c2ccc(Cl)cc2)c1`: the “hERG current change (%, negative = inhibition) at 1uM” value is on record as 9.06%.
With `O=C1CC(NS(=O)(=O)c2cccnc2)CN1c1ccccc1` (centres unmarked) the figure was 3.59%.
With `O=C(CCNC(=O)Cn1ccc2ccccc2c1=O)NCCCN1CCN(c2ccc(F)cc2)CC1` the figure was 9.51%; with `Cc1cc(C)c(NN=c2c(=O)c3ccccc3c2=O)c(C)c1`, -4.07%; with `C=CCn1c(SCC(=O)Nc2c(C)n(C)n(-c3ccccc3)c2=O)nc2sc(C)c(C)c2c1=O`, -21.6%.
In the case of `CC(=O)CC(=O)Nc1ncccn1` it was 14.5%; in that of `COCCCNC(=O)/C(C#N)=C/c1c(N2CCN(C)CC2)nc2ccccn2c1=O`, 25.1%.
As to `CCOc1ccccc1/C=N/NC(=O)c1cccc(S(=O)(=O)N(CC)CC)c1`, the “hERG current change (%, negative = inhibition) at 1uM” value is on record as -2.02%.
In the case of `CC(C)Sc1nnc(Nc2ccccc2)s1` it was 3.42%.
Consider `C=CCOC(=O)C1=C(C)NC(=O)NC1/C=C/c1ccccc1` (centres unmarked), for which the “hERG current change (%, negative = inhibition) at 1uM” value was 8.57%.
With `c1ccc(Nc2ncnc3[nH]ncc23)cc1` the figure was 11.5%; with `NS(=O)(=O)c1ccc(NC(=O)c2cc(-c3cc(Cl)ccc3O)n[nH]2)cc1`, 14.3%.
In the case of `Cc1cc(C)c(S(=O)(=O)N2CCOC2CNC(=O)C(=O)NCc2ccccn2)c(C)c1` (centres unmarked) it was 13%; in that of `Cc1ccc(CSC2=Nc3ccccc3C3=NC(CCC(=O)NCc4ccco4)C(=O)N23)cc1` (centres unmarked), -1.29%; in that of `C/C=C/c1ccc(OCCCNC(C)CC)c(OC)c1.O=C(O)C(=O)O` (centres unmarked), 4.69%.
In the case of `CCC(C(=O)N1CCN(Cc2ccc3c(c2)OCO3)CC1)n1c(=O)[nH]c2ccccc2c1=O` (centres unmarked), the “hERG current change (%, negative = inhibition) at 1uM” value is reported as -8.55%.
In the case of `Cc1ccc2nc(SCC(=O)N3CCOCC3)[nH]c2c1`, the “hERG current change (%, negative = inhibition) at 1uM” value came to 1.05%.
As to `Cc1csc(SCCn2c(N3CCOCC3)nc3c2c(=O)[nH]c(=O)n3C)n1`, the “hERG current change (%, negative = inhibition) at 1uM” value is reported as 10.8%.
As to `Cc1ccc(S(=O)(=O)NNC(=O)C2CCN(Cc3ccccc3)CC2)cc1`, the “hERG current change (%, negative = inhibition) at 1uM” value is on record as -6.3%.
In the case of `O=C(NCCN1CCOCC1)C(=O)NCc1ccco1` it was 14.6%; in that of `CSc1ccccc1C(=O)Nc1ccccc1C`, 13%.
With `Cc1nnsc1C(=O)NC1CCCc2c1cnn2-c1cc(F)cc(F)c1` (centres unmarked), the “hERG current change (%, negative = inhibition) at 1uM” value stood at 1.22%.
With `CCCc1cc(-c2n[nH]c(=S)n2-c2cccc(C)c2)cs1` the figure was 12.3%; with `COc1ccc2nc(/C=N/NC(=O)[C@H](CCSC)NC(=O)OC(C)(C)C)ccc2c1`, 0.0002%; with `O=C(CSc1nc2sc3c(c2c(=O)n1-c1ccccc1)CCCC3)N/N=C/c1ccccc1C(=O)O`, 13.6%.
In the case of `Nc1ccccc1SCC(=O)Nc1cccc2ccccc12` it was 13.9%; in that of `C=CCSC1=C(C#N)C(c2ccccc2Cl)CC(=O)N1` (centres unmarked), 2.54%.
With `CCN(CC)c1cnn(C/C(=N\OC)c2ccc(Cl)cc2)c(=O)c1Br` the figure was 3.27%.
